The text below walks through data of the RNAGym collection of RNA variant scans (doi:10.7554/elife.90254).

The chains are these.
B1: LINE1-mini (parent)
chain: GGCAGAGCUCAACACAGCGUGGCAAAGUGGCUGUGGCUAGACUGCC

Read counts are not given, so values of variants with three or more changes are uncertain.

Variants of B1 are the subject of the data set. As to the kind of experiment: self-cleavage, relative activity (ratio to wild type); higher = more cleavage; in vitro, sequencing; the parent is a self-cleaving ribozyme.
On to GGCAGAGCUCAACACAGCGUGGCAAAGUGGUUCUGGCUACACUUCC [C31U G33C G40C G44U], for which the self-cleavage came out at 0.04.
For the variant GGCAGAGCUCAACACAGCGUGGCAAAGUGGAUGUUGCUAGAGCGCC [C31A G35U C42G U43C], the self-cleavage worked out at 0.03.
In the case of GGCAGAGCUCAACACAGCGUGGCAAAGUGGUUGUGGAUAGAUUGCC [C31U C37A C42U], the self-cleavage turned out to be 0.11.
Take GGCAGAGCUCAACACAGCGUGGCAAAGUGGUUGGGGCUAGAUUGCC [C31U U34G C42U]: the self-cleavage worked out at 0.03.
GGCAGAGCUCAACACAGCGUGGCAAAGUGUCUUUGGGUAGACUGCC [G30U G33U C37G]: the self-cleavage amounted to 0.02.
In the case of GGCAGAGCUCAACACAGCGUGGCAAAGUGGUUGUGGCUUGUCUGCC [C31U A39U A41U] it was 0.09; in that of GGCAGAGCUCAACACAGCGUGGCAAAGUGCCAGUGGCUUGAUUGGC [G30C U32A A39U C42U C45G], 0.02; in that of GGCAGAGCUCAACACAGCGUGGCAAAGUGGGUUUGGCUAGUCUGCC [C31G G33U A41U], 0.11.
As to GGCAGAGCUCAACACAGCGUGGCAAAGUGUCAGUGGCUAGACCGCC [G30U U32A U43C], the self-cleavage stood at 0.02.
As for GGCAGAGCUCAACACAGCGUGGCAAAGUGUCUGUGGCUGAACUGCC [G30U A39G G40A], the self-cleavage worked out at 0.05.
In the case of GGCAGAGCUCAACACAGCGUGGCAAAGUGUCUGCGGCUAGACCGCC [G30U U34C U43C] it was 0.02; in that of GGCAGAGCUCAACACAGCGUGGCAAAGUGCCUGUGGCUCGACUACC [G30C A39C G44A], 0.09.
The result for GGCAGAGCUCAACACAGCGUGGCAAAGUGGUUUUGGCUAGACCGCC [C31U G33U U43C] reads 0.01; that for GGCAGAGCUCAACACAGCGUGGCAAAGUGGAUGUGGCUACACGGCC [C31A G40C U43G], 0.03.
On to GGCAGAGCUCAACACAGCGUGGCAAAGUGGCAGUGGCUUGAAUGCC [U32A A39U C42A], for which the self-cleavage turned out to be 0.05.
Turning to GGCAGAGCUCAACACAGCGUGGCAAAGUGUCUGUGACUGGAGUGCC [G30U G36A A39G C42G], the self-cleavage came to 0.04.
In the case of GGCAGAGCUCAACACAGCGUGGCAAAGUGGAUGUGGCUAGGCUGCA [C31A A41G C46A] it was 0.03.
For the variant GGCAGAGCUCAACACAGCGUGGCAAAGUGCCUAUUGCUAGACUGCC [G30C G33A G35U], the self-cleavage was 0.32.
GGCAGAGCUCAACACAGCGUGGCAAAGUGCCUGUCGCUAGACUACC [G30C G35C G44A]: the self-cleavage is 0.03.
As to GGCAGAGCUCAACACAGCGUGGCAAAGUGGUUGUGGCGAGACUACC [C31U U38G G44A], the self-cleavage came to 0.11.
GGCAGAGCUCAACACAGCGUGGCAAAGUGUCCGUGCCAAGACUGCC [G30U U32C G36C U38A]: the self-cleavage worked out at 0.29.
With GGCAGAGCUCAACACAGCGUGGCAAAGUGGGUUUGGAUAGACUGCA [C31G G33U C37A C46A], the self-cleavage was found to be 0.03.
As for GGCAGAGCUCAACACAGCGUGGCAAAGUGGAUGUGGCUCGACUUCC [C31A A39C G44U], the self-cleavage is 0.06.
For GGCAGAGCUCAACACAGCGUGGCAAAGUGGAUGUUGAUAGACUGCC [C31A G35U C37A], the self-cleavage stood at 0.
In the case of GGCAGAGCUCAACACAGCGUGGCAAAGUGUAUGGGGCUAGACUGCC [G30U C31A U34G], the self-cleavage was 0.06.
Regarding GGCAGAGCUCAACACAGCGUGGCAAAGUGGGUGAGGCUAGACCGCC [C31G U34A U43C], the self-cleavage came to 0.08.
GGCAGAGCUCAACACAGCGUGGCAAAGUGCUUGUGUCUAGACUGCC [G30C C31U G36U]: the self-cleavage was found to be 0.06.
As to GGCAGAGCUCAACACAGCGUGGCAAAGUGUCUGUGCAUAGACUGCC [G30U G36C C37A], the self-cleavage was 0.03.
In the case of GGCAGAGCUCAACACAGCGUGGCAAAGUGUCCGUGACUAGACUGCC [G30U U32C G36A], the self-cleavage was determined as 0.03.
GGCAGAGCUCAACACAGCGUGGCAAAGUGUUUGCGGCUAGACUGCC [G30U C31U U34C]: the self-cleavage worked out at 0.1.
For the variant GGCAGAGCUCAACACAGCGUGGCAAAGUGACUGUGCUUAGACUUCC [G30A G36C C37U G44U], the self-cleavage is 0.02.
The result for GGCAGAGCUCAACACAGCGUGGCAAAGUGGAUGUUGCUAGACUGUC [C31A G35U C45U] reads 0.05; that for GGCAGAGCUCAACACAGCGUGGCAAAGUGGUAGUGGCUAGACCGCC [C31U U32A U43C], 0.04.
On to GGCAGAGCUCAACACAGCGUGGCAAAGUGACUGUGGCCAGACUGCG [G30A U38C C46G], for which the self-cleavage came to 0.17.
On to GGCAGAGCUCAACACAGCGUGGCAAAGUGCCUGGGGCUAUACUGCC [G30C U34G G40U], for which the self-cleavage came to 0.06.
On to GGCAGAGCUCAACACAGCGUGGCAAAGUGCCGGUGGUUAGCCUGCC [G30C U32G C37U A41C], for which the self-cleavage was 0.02.
Regarding GGCAGAGCUCAACACAGCGUGGCAAAGUGACUGUAGCUAAACUAUC [G30A G35A G40A G44A C45U], the self-cleavage was found to be 0.05.
Turning to GGCAGAGCUCAACACAGCGUGGCAAAGUGGCAGUGGCUAGAGUGCA [U32A C42G C46A], the self-cleavage was found to be 0.02.
Turning to GGCAGAGCUCAACACAGCGUGGCAAAGUGUCUCUGGCUCGUCUGCC [G30U G33C A39C A41U], the self-cleavage is 0.02.
In the case of GGCAGAGCUCAACACAGCGUGGCAAAGUGGACGUGCCUAGACCGCC [C31A U32C G36C U43C] it was 0.05.
Consider GGCAGAGCUCAACACAGCGUGGCAAAGUGCAUGUGGCUAGACAGCC [G30C C31A U43A], for which the self-cleavage was found to be 0.06.
For GGCAGAGCUCAACACAGCGUGGCAAAGUGCCUGUAGUUAUACUGCC [G30C G35A C37U G40U], the self-cleavage is 0.06.
In the case of GGCAGAGCUCAACACAGCGUGGCAAAGUGGAUGCGACUAGACUACC [C31A U34C G36A G44A] it was 0.06.
With GGCAGAGCUCAACACAGCGUGGCAAAGUGGCAGUGACUAGCCUGCC [U32A G36A A41C], the self-cleavage was found to be 0.08.
In the case of GGCAGAGCUCAACACAGCGUGGCAAAGUGGGUGUGGCAAGACUGCU [C31G U38A C46U] it was 0.19; in that of GGCAGAGCUCAACACAGCGUGGCAAAGUGGUUGUGUCUUGACUGCC [C31U G36U A39U], 0.07; in that of GGCAGAGCUCAACACAGCGUGGCAAAGUGCCUGUGACUAUAUUGCC [G30C G36A G40U C42U], 0.07.
With GGCAGAGCUCAACACAGCGUGGCAAAGUGGGUGUUGCUAGACUGCG [C31G G35U C46G], the self-cleavage was found to be 0.
In the case of GGCAGAGCUCAACACAGCGUGGCAAAGUGGGUGUGGCCGGACUGCC [C31G U38C A39G] it was 0.03; in that of GGCAGAGCUCAACACAGCGUGGCAAAGUGGAUGCGGCUAUACUGCC [C31A U34C G40U], 0.08; in that of GGCAGAGCUCAACACAGCGUGGCAAAGUGGGUCUGGCCAGACUGCC [C31G G33C U38C], 0.03.
In the case of GGCAGAGCUCAACACAGCGUGGCAAAGUGGGUGUGGCCAUACUGCC [C31G U38C G40U] it was 0.07; in that of GGCAGAGCUCAACACAGCGUGGCAAAGUGGGUAUAGCUAGACCGCC [C31G G33A G35A U43C], 0.1.
Turning to GGCAGAGCUCAACACAGCGUGGCAAAGUGCCUGUGGCUAGACUAGC [G30C G44A C45G], the self-cleavage turned out to be 0.47.
As for GGCAGAGCUCAACACAGCGUGGCAAAGUGGAUGUGGCUAGACUGGG [C31A C45G C46G], the self-cleavage was determined as 0.07.
In the case of GGCAGAGCUCAACACAGCGUGGCAAAGUGGAUGCGGCUAGACUGCG [C31A U34C C46G], the self-cleavage turned out to be 0.03.
